In the RNAGym collection of RNA variant scans (doi:10.1101/gad.245936.114):
This sample is rich in variants without activity.

B1: tRNA (parent)
chain: CUCUCGGUAGCCAAGUUGGUUUAAGGCGCAAGACUUUAAUUUAUCACUACGAAAUCUUGAGAUCGGGCGUUCGACUCGCCCCCGGGAGAUUUUUUCCUCGAGCAA

Variants of: B1
Experiment: nonsense suppression (GFP-seq) (ratio to wild type); higher = more function; SUP4oc tRNA, yeast GFP reporter sort-seq
Method in brief: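 Raffinose/galactose medium with 80 mg/L adenine was used to grow yeast carrying genome-integrated tRNA variants (~3% random-mutation library), RFP, and a galactose-driven GFP ochre reporter. Cells went into GFP/RFP bins, which were Illumina-sequenced, and variants with ≥100 reads and ≥30 cells were scored. Nonsense suppression (GFPSEQ) is the per-bin median GFP/RFP weighted by estimated cell share and expressed relative to the unmutated parent tRNA.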

Nonsense suppression, ≤ 0.026:
G25C G61A
G25C G61C
G25C G65A C80G
G25C G67A G69A
G25C G69A
G25C G73C
G25C G73U
G25C G85U
G25C G86A G88A
G25C G86C
G25C U35A C72A C81A
G25C U35C U57C G86C
G25C U55A G66A
G25C U55C A60U
G25C U57C
G25C U57C A74U
G25C U57C U70G
G25C U58A G59A A62C
G25C U63C C68U C80U C82G A89G
G25C U71C C72U G73U
G25C U76A
G25C U76C
G25U
G25U A30G G59U
G25U A30U
G25U A33G
G25U A33G G84U
G25U A33G U71G
G25U A33U U55A C77G
G25U A89U
G25U C27A C34A
G25U C29G
G25U C34A U76C G84A
G25U C34G
G25U C34G U58A
G25U C34U
G25U C56A C64A
G25U C64G G65C
G25U C72U
G25U C75U
G25U C82A
G25U C82G G88U
G25U G26A A33U U63C C72A
G25U G26C A31G U55A G84C
G25U G32U
G25U G61A G66C
G25U G66A
G25U G66C
G25U G69C
G25U G69U
G25U G73C
G25U G85C
G25U G88U
G25U U35C G59U G88A
G25U U55A
G25U U57A
G25U U57A C83A
G25U U57C
G25U U57C G86U
G25U U57G
G25U U58G
G25U U58G A74C
G25U U63A G86A
G25U U70A
G25U U71G
G25U U76G
G26A
G26A A31G G59U
G26A A31G G61C G66A
G26A A54C A62U U63A G65C C79A C81G
G26A A62U
G26A A74C
G26A A74C U76C
G26A A87G
G26A C27U A31G G65C G66C G73A G78C A87C
G26A C29G A30G A33G
G26A C34G G85A
G26A C56A G69U
G26A C56G U57A G88C
G26A C68G
G26A C77G
G26A G28U G66U C79A
G26A G32A U63A G85U G88A
G26A G32U G66C
G26A G32U U55A
G26A G61A
G26A G61U G65C G67C
G26A G66U U70C
G26A G67C A74G
G26A G69C A74U
G26A G85U G86C
G26A U35C A54U G61U C72U
G26A U55A C68U
G26A U63C U70G A89U
G26A U70C
G26A U76A G78C
G26C
G26C A30U G85A
G26C A31C C68U
G26C A31U G88U
G26C A33G C77G G86U
G26C A33G U76G
G26C A54C G73U
G26C A54G
G26C A60U C64G
G26C A62C
G26C A74G
G26C C27A G59C U70G C75A
G26C C27G
G26C C27U A30U C34U C72G G88C
G26C C27U G65A
G26C C29U G67U
G26C C34A C83U A89C
G26C C34G U55C G66C
G26C C34U G61A C82A G85C G86A
G26C C34U U58A A62G
G26C C64A
G26C C64G C75U
G26C C72A C77A C83G
G26C C72U C80G
G26C C75G U76A
G26C C80A
G26C C80U
G26C C82G G84A
G26C C83G G86A A87G
G26C C83U
G26C G61A
G26C G66A G73A C77G
G26C G84C A89G
G26C G86U
G26C U35A
G26C U57G A60G G69A
G26C U58A U63G C64G C80A A89C
G26C U70A
G26C U70C
G26U
G26U A30C C56A C77G
G26U A31C G84A
G26U A31C U55G G65C
G26U A31G A54U U57C G73C
G26U A33C C34A G59C
G26U A33C U70C G85A A87C
G26U A33G C56G
G26U A33G G78C G84A
G26U A60C
G26U A60C U70G C72A G84C A89U
G26U A62G
G26U A89G
G26U C27U
G26U C29A A54U C79G
G26U C29A A54U C79U
G26U C29G
G26U C56U
G26U C64A G66U
G26U C68A G73A C77G
G26U C82A
G26U G59A
G26U G59U
G26U G61A
G26U G66C C83G
G26U G67A
G26U G67A A87G
G26U G69A
G26U G73A
G26U G78C
G26U G86C
G26U G88C
